In ChEMBL document CHEMBL1201862, “PubChem BioAssay data set” (2004):
Counter-ions that a name gives are not always drawn.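 Cells were grown in 96-well plates and exposed to each compound for 48 hours at five concentrations; endpoints were interpolated linearly between bracketing concentrations, or set to the highest concentration if not reached. The concentration for 50% growth inhibition is given as GI50.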 The source made the active and inactive calls. Rule as the data show it: active = GI50 up to about 1.1 µM and inactive = higher.

Tested on: NCI-H322M
Assay: NCI-60 cell line screen, 48 h

Structure (SMILES) | GI50
CCc1c2c([nH]c(=S)c1C#N)CCC2 | inactive: > 100 µM
CN1CCC23c4c5ccc(Oc6nnnn6-c6ccccc6)c4OC2c2[nH]c4ccccc4c2CC3(O)C1C5 (centres undefined) | inactive: 7.05 µM
CN(C)c1ccc(/C=C2\C[C@H]3[C@@H]4CCc5cc(OCCN6CCCC6)ccc5[C@H]4CC[C@]3(C)[C@H]2O)cc1 | inactive: 13.2 µM
NC1C2C=CC(C2)C1C(=O)O (centres undefined) | inactive: > 100 µM
CC1(C)CC(=O)C(=[N+]=[N-])C(=O)C1 | inactive: > 100 µM
Cc1cccc(NC(=O)C(=O)C(C2OC(=O)c3ccccc32)[N+](=O)[O-])c1C (centres undefined) | inactive: 16.3 µM
O=C(N/N=C\c1cccc(O)c1)c1ccncc1 | inactive: > 100 µM
CC1(C)OC(C[C@]2(C#N)C[C@H](CCl)OC(C)(C)O2)C[C@@H](C[C@]2(C#N)C[C@H](CCl)OC(C)(C)O2)O1 (some centres undefined) | inactive: > 100 µM
COc1nc(N)c(NC2OC(CO)C(O)C2O)c(=O)[nH]1 (centres undefined) | inactive: > 100 µM
O=C1c2cc3c(cc2CC12Cc1cc4c(cc1C2=O)CCCC4)CCCC3 | inactive: > 100 µM
CCOC(=O)C1=NOC2(C=C(Br)C(=O)C(Br)=C2)C1 | inactive: 16.2 µM
O=C(CSCC(=O)N/N=C/c1ccc2c(c1)OCO2)N/N=C/c1ccc2c(c1)OCO2 | inactive: > 100 µM
CCOP(=O)(/C=C/n1ccc(N)nc1=O)OCC | inactive: > 100 µM
CC(=O)OC1C(=O)C(O)C(C)OC1O[C@@H]1C[C@@]2(C)[C@@H]3CC=C4[C@@H](C[C@H](O)C(=O)C4(C)C)[C@]3(C)C(=O)C[C@]2(C)[C@H]1[C@@](C)(O)C(=O)/C=C/C(C)(C)O (some centres undefined) | inactive: > 7.4 µM
Cc1ccc(Cl)c2c(=O)c3ccc(N)cc3sc12 | inactive: 25.1 µM
O=P1(NCCCl)OCCCN1CCCl (centres undefined) [IFOSFAMIDE] | inactive: 406 µM
CC(C)(C)S(=O)OC12CC3CC(CC(C3)C1)C2 (centres undefined) | inactive: > 100 µM
CC1=C[C@@H]2Cc3nc4cc(Cl)ccc4c(N)c3[C@H](C1)C2 | inactive: 10.5 µM
CC1=NNC(=S)NCCCN2CCN(CCCNC(=S)NN=C(C)C=NNC(=S)NCCCN3CCN(CCCNC(=S)NN=C1)CC3)CC2 | inactive: > 100 µM
COc1cc(C2c3cc4c(cc3OC3(OC)COC(=O)C23)OCO4)cc(OC)c1OC (centres undefined) | active: 0.4 µM
OCC(S)CS.[Bi] (centres undefined) | inactive: 16.3 µM
COc1cc(C/N=c2/nc(N(C)C)ss2)cc(OC)c1OC | inactive: > 10 µM
Nc1ncnc2c1cnn2COCC(O)CO (centres undefined) | inactive: > 100 µM
CCSC1=N/C(=C\c2ccco2)C(NN)=N1 | inactive: > 50 µM
NC(=O)C(=CNC(=S)c1ccncc1)C(N)=O | inactive: > 100 µM
COc1ccc2nc(-c3ccccc3)cc(OCC(=O)O)c2c1 | inactive: > 100 µM
COc1ccc(C(O)CC(O)(C(F)(F)F)C(F)(F)F)cc1 (centres undefined) | inactive: 42.8 µM

Structure (SMILES) | GI50
Nc1nc(I)nc2c1ncn2C1OC(COS(N)(=O)=O)C(O)C1O (centres undefined) | active: < 0.01 µM
[N-]=[N+]=Nc1nc2ccccc2c(N=[N+]=[N-])c1Cl | inactive: > 100 µM
N=c1ccn2c(n1)O[C@H]1[C@H](O)[C@@H](CO)O[C@H]12 [ANCITABINE HYDROCHLORIDE] | inactive: 778 µM
COC(=O)[C@@]12CN(C)[C@@H](C(C)(C)C)N1C(=O)OC2c1ccccc1 (some centres undefined) | inactive: > 100 µM
ClCCNCCNCCCl.ClCCNCCNCCCl.[O-][Cl+3]([O-])([O-])O | inactive: 79.6 µM
COc1ccc(OC)c2sc(N3C(=O)/C(=C/c4cccc(Oc5ccccc5)c4)N=C3c3ccccc3)nc12 | inactive: > 100 µM
CC(=O)O[C@H]1C(=O)[C@@]2(C)[C@H]([C@H](OC(=O)c3ccc(F)cc3)[C@]3(O)C[C@H](OC(=O)[C@H](O)[C@@H](NC(=O)c4ccccc4)c4ccccc4)C(C)=C1C3(C)C)[C@]1(OC(C)=O)CO[C@@H]1C[C@@H]2O | active: 0.0352 µM
C=C1COC(O)(C2OCOC(C3CC(=O)NC(=O)C3)C2O)C1C (centres undefined) | active: 0.00641 µM
COc1cc2c(cc1O)[C@]1(Cc3ccc4c(c3C1=O)OCO4)N(C)CC2 | inactive: > 100 µM
COC(=O)c1c2c(c3[nH]c4ccccc4c3c1C(=O)OC)C(=O)C1=C(C2=O)C2(Cl)C(Cl)C(Cl)C1(Cl)C2(Cl)Cl (centres undefined) | inactive: 3.67 µM
COC(=O)CC(=O)OC1C[C@@H]2CCC3C(C)(C)CCC[C@]3(C)C23CC[C@@]1(C)C3 (some centres undefined) | inactive: 19 µM
CCC(C)C(N)C(=O)NC(CC(N)=O)C(=O)NC(CC(C)C)C(=O)NC(CCCCN)C(=O)NC(C)C(=O)NC(CC(C)C)C(=O)NC(C)C(=O)NC(C)C(=O)NC(CC(C)C)C(=O)NC(C)C(=O)NC(CCCCN)C(=O)NC(CCCCN)C(=O)NC(C(=O)NC(CC(C)C)C(N)=O)C(C)CC (centres undefined) | inactive: 7.38 µM
O=C(O)c1ccc(C(=O)O)c(C(=O)Nc2ccc3c(c2)C(=O)c2ccccc2-3)c1 | inactive: > 100 µM
CN(c1ccc(Cl)cc1)S(=O)(=O)c1ccccc1 | inactive: > 100 µM
NC1N=C(c2ccc(Cl)cc2)C2=C(N1)c1ccccc1CC2 (centres undefined) | inactive: 20.8 µM
COc1cc(/C=C/c2cc(/C=C/c3ccc(O)c(OC)c3)oc(=O)c2)ccc1O | inactive: 4.11 µM
O=[N+]([O-])c1ccccc1[S+]([O-])c1ccccc1 (centres undefined) | inactive: 57.8 µM
CC1OC(OC2C(OC(=O)[C@]34CCC(C)(C)C[C@H]3C3=CC[C@@H]5[C@@]6(C)CC[C@H](OC7OC(CO)C(O)C(O)C7OC7OC(CO)C(O)C(O)C7O)C(C)(C)[C@@H]6CC[C@@]5(C)[C@]3(C)CC4)OCC(O)C2O)C(O)C(O)C1OC1OCC(O)C(O)C1O (some centres undefined) | inactive: 11.4 µM
CC[C@@]1(O)C(=O)OCc2c1cc1n(c2=O)Cc2c-1nc1ccccc1c2CC[Si](C)(C)C [COSITECAN] | active: 0.0192 µM
CC(=O)Oc1ccccc1[C@H]1CC(=O)C[C@H](c2ccccc2OC(C)=O)C12C(=O)c1ccccc1C2=O | inactive: 58.7 µM
CC(C)C(C/C=C1\CC(CO)(COC(=O)C2CCCCC2)OC1=O)C(C)C (centres undefined) | inactive: 15.7 µM
CCCCCCCCCCCCCCCc1nnc(S)[nH]1 | inactive: > 100 µM
O=C(O)c1c2c(cc3c1CC1(Cc4ccccc4C1=O)C3)CCC2 (centres undefined) | inactive: 5.78 µM
c1ccc(C2OCCO2)c(OCCOc2cc(OCCOc3ccccc3C3OCCO3)c(OCCOc3ccccc3C3OCCO3)cc2OCCOc2ccccc2C2OCCO2)c1 | inactive: > 100 µM
CC[C@]12CN3CCc4c([nH]c5ccccc45)[C@@](C(=O)OC)(c4cc5c(cc4OC)N(C)[C@H]4[C@@](O)(C(=O)OC)[C@H](OC(C)=O)[C@]6(CC)C=CCN7CC[C@]54[C@@H]76)CC(C3)[C@H]1O2 (some centres undefined) [VINLEUROSINE SULFATE] | active: < 0.01 µM
CCCCCCCCCCCCC(O)[C@H]1CC[C@H](C(O)CCCCCC(=O)CCCCC2CC(C(C)=O)C(=O)O2)O1 (some centres undefined) | inactive: 14.8 µM
c1csc(-c2cc(-c3ccsc3)cs2)c1 | inactive: > 100 µM

Structure (SMILES) | GI50
CCCN1C(=O)C/C(=C\C(C)=O)Nc2ccccc21 | inactive: > 100 µM
CC1=CCC[C@H]2[C@](C)(CC3=CC(=O)C(SCC(C)C)=CC3=O)[C@@H](C)CC[C@]12C | inactive: 17.3 µM
O=C(NC(Nc1ccc(F)c(Cl)c1)(C(F)(F)F)C(F)(F)F)C(C(F)(F)F)C(F)(F)F | inactive: 42.8 µM
Cc1ccc(C)c(NC(=O)CC2SC(Nc3ccccc3Cl)=NC2=O)c1 (centres undefined) | inactive: > 100 µM
CC1(C)OCC=CCO1 | inactive: > 100 µM
CCn1c(=O)c2cn[nH]c2n(C)c1=O | inactive: > 100 µM
CC(=O)N(C(C)=O)n1c(-c2ccccc2)n[nH]c1=O | inactive: > 100 µM
CC(=O)O[C@H]1C(=O)[C@@]2(C)C(C(OC(=O)c3ccccc3)[C@]3(O)CC(OC(=O)C(O)C(NC(=O)c4ccccc4)c4ccc(C)cc4)C(C)=C1C3(C)C)[C@]1(OC(C)=O)CO[C@@H]1C[C@@H]2O (some centres undefined) | active: 0.0724 µM
O=C=NCCCCCCN1C(=O)N2C(c3ccccc3)N(CCCCCCN=C=O)C(=O)N2C1c1ccccc1 (centres undefined) | inactive: > 100 µM
O=C(c1ccccc1)c1cc[n+](C2=C([N-]S(=O)(=O)c3ccccc3)C(=O)c3ccccc3C2=O)cc1 | inactive: 15.7 µM
O=C(O)CC1OCC=C2CN3CCC45C6=CC(=O)C(O)=C([N+](=O)[O-])C6=NC4C1C2CC35 (centres undefined) | inactive: > 100 µM
O=C1/C(=C/c2ccc(Br)s2)NC(=S)N1c1ccccc1 | inactive: 64.1 µM
Cc1cc(Cc2cc(C)c(N)cc2N)c(N)cc1N | inactive: 36.6 µM
COC(=O)C(Cc1cc(OC)c(OC)c(OC)c1)C(=O)OC | inactive: > 320 µM
CCc1cccc(C(C)C)c1NC(=O)/C(=N\NC(N)=O)C(C(=O)OC)c1cnc2ccccc2n1 (centres undefined) | inactive: 57.3 µM
CCS(=O)(=O)CCn1cnc2c1c(=O)n(C)c(=O)n2C | inactive: > 100 µM
CC(=O)O[C@@]12CO[C@@H]1C[C@H](O)[C@@]1(C)C(=O)[C@H](O)C3=C(C)[C@@H](OC(=O)[C@H](O)[C@@H](NC(=O)OC(C)(C)C)c4ccccc4)C[C@@](O)([C@@H](OC(=O)c4ccccc4)[C@H]21)C3(C)C [DOCETAXEL] | active: 0.01 µM
Brc1ccc2[nH]cc(-c3csc(-c4c[nH]c5ccc(Br)cc45)n3)c2c1 | inactive: 1.91 µM
C=C(C)[C@@H]1CC[C@]2(C(=O)O)CC[C@]3(C)[C@H](CC[C@@H]4[C@@]5(C)CC[C@H](O)C(C)(C)[C@@H]5CC[C@]43C)[C@@H]12 [BETULINIC ACID] | inactive: 10.6 µM
C[C@@H]1CCC2[C@@H](C)[C@@H](OCCO[C@H]3OC4O[C@@]5(C)CCC6[C@H](C)CCC([C@H]3C)[C@@]46OO5)OC3O[C@@]4(C)CCC1[C@]32OO4 (some centres undefined) | inactive: > 100 µM
O=c1c2cc(-c3ccccc3)cnc2sn1-c1ccc(Oc2ccccc2)cc1 | inactive: 39.1 µM
Cc1cc(N(CCC#N)CCC#N)ccc1/N=N/c1ccc([N+](=O)[O-])cc1 | inactive: > 100 µM
Oc1ccc2c3c1OC1C(=NN=C4CCC5(O)C6Cc7ccc(O)c8c7C5(CCN6CC5CC5)C4O8)CCC4(O)C(C2)N(CC2CC2)CCC314 (centres undefined) | inactive: 41.2 µM
COC(=O)c1c(C)nc(C)c(NO)c1-c1ccccc1C(F)(F)F | inactive: > 100 µM
CC(C)(C)c1cc(C(=O)/C=C/C=C/c2ccccc2)cc(C(C)(C)C)c1O | inactive: 40.6 µM
